The chains are these.
B1: LINE1-mini (parent)
chain: GGCAGAGCUCAACACAGCGUGGCAAAGUGGCUGUGGCUAGACUGCC

The source gives no read counts; variants with many changes may rest on few reads.

Our source for the self-cleavage values is the RNAGym collection of RNA variant scans (doi:10.7554/elife.90254).

The variants in this data set derive from B1. Kind of data set: self-cleavage, relative activity (ratio to wild type); higher = more cleavage; in vitro, sequencing; the parent is a self-cleaving ribozyme.
On to GGCAGAGCUCGACACAGCGUUGCAAAGUGGCUGUGGCUAGCCUGCC [A11G G21U A41C], for which the self-cleavage came to 0.02. For the variant GGAAGAGCUCAACACAGCGUGGCGAAGUGGAAGUGGCUAGACUGCG [C3A A24G C31A U32A C46G], the self-cleavage stood at 0.5. The value for GUCAGAGAUCAACACAGCGUGGCAAAGUGCCUGUGGCUAGACUGCC [G2U C8A G30C] was 0.04; that for GGCAGAGCUCAACACAGCGUGUCAAAGUGGCUGUGCCUAGGCUGCC [G22U G36C A41G] was 0.64; that for GGCUGAGCUCAAAACAGCGUGGCAAAGAGGCUGUGAAUAGACUGCC [A4U C13A U28A G36A C37A] was 0.14. The figure for GGCAGAGCUCAACACAGCGUGGCAAAGUGGCUGCGUCUAGAGUGCC [U34C G36U C42G] is 0.1.

Regarding GGCAGCGCUCAACACAGCGUGGCAAAGUGGCUAUGGCUAGUCUGCC [A6C G33A A41U], the self-cleavage was determined as 0.13. The value for CGCAGAGCUAUACACAGCGUGGAAAGGUGGCUGAGGCUAGACUACC [G1C C10A A11U C23A A26G U34A G44A] was 0.01; that for GGCAGAGCUCAACAAAGGGUGGCAAAGUGGCUGUGGCUGGACUGCC [C15A C18G A39G] was 0.06.

For the variant GGCAGAGAUCAACACAACGUGGCGAAGUGGCUGUGGCUAGACUGCC [C8A G17A A24G], the self-cleavage came to 0.26. As to GGUAGAGCUCAACACCGCGUGGCCUAGUGGCUGCGGCUAGACUGCC [C3U A16C A24C A25U U34C], the self-cleavage came out at 0.02. On to GGCAGAGCUGAACACAGCGUGGAACAGUCGCUGUGGCUAGACUGCC [C10G C23A A25C G29C], for which the self-cleavage turned out to be 0.08. Regarding GGCAGAUCACAUCACAGGGUGGCAAAGUGGCUAUGGCUACACUGCC [G7U U9A A12U C18G G33A G40C], the self-cleavage came to 0.02. Turning to GGCAGAACUCAACACAGCGUUGCAAAGUGGCUGUAGCUAGACUGCC [G7A G21U G35A], the self-cleavage was 0.11. The value for GUCAGAGCUCGACACAGCGUGGCAAAGUGACUGUGGCUAGACUGCC [G2U A11G G30A] was 0.01; that for GGCAGCGCUAAACACAGCGUGGCAAAGUGGCUGUGGAUAGACUGCC [A6C C10A C37A] was 0.01; that for GACAGAGCUCAACACAGCGUGGCAAAGUGGAUGUAGCUACACUGCC [G2A C31A G35A G40C] was 0.05. The value for GGCGGAGUUCAACACAGCGUUGCAAAGUGGCUGUGGCUAGACUGCA [A4G C8U G21U C46A] was 0.08; that for GGCAGAGCUCAACACUGAGUGGGUAAGUGGCUGUGGCUAGACUGCC [A16U C18A C23G A24U] was 0.02. The figure for GGCAGAGCACAACACAGCGUGGCAAAGUGUCUGCGGCUAGACUGCG [U9A G30U U34C C46G] is 0.08; for GGCUAAGCACAACACAGCGUGGCUAAGUGGCGGUGGCUAGACUGCA [A4U G5A U9A A24U U32G C46A] it is 0.01. Take GGCAUGGCUCAACACAGCGUUGCAAAGUGGCUGUGGCUAGACUGCC [G5U A6G G21U]: the self-cleavage came to 0.05.

Take GACAGAGCUCAACACAGCUUGGAAAAGUGGCUGGGGUUAGAGUGCC [G2A G19U C23A U34G C37U C42G]: the self-cleavage was 0.02.

Turning to GGCAGAGCACAACUCAGCGUGACAAAGUGGCCGUGGCUAGAAUGCC [U9A A14U G22A U32C C42A], the self-cleavage came out at 0.03. The figure for GGAAGAGCUCCACACAGAUUGGCAAAGUGGCUGUGGCUAGACUACC [C3A A11C C18A G19U G44A] is 0.02; for GGCAGGGCUCAACACAGUGUGGCAAAGUGACUGUGGGUCGACUGCC [A6G C18U G30A C37G A39C] it is 0.08. The value for GGCAGCGCUCUACGCAGCGUGGCAAAGUGGCUGUGGCUAGACUGCC [A6C A11U A14G] was 0.04; that for GGCAGAGCUCAACAGAGAGUGGCAAAGUGGCUGUGGCUAGACCGCC [C15G C18A U43C] was 0.03; that for GGCCGAGCUCAACACAGCGUGGCAGAGUGGCUGUGGCAAGACUGCC [A4C A25G U38A] was 0.07. The figure for GGCAGAGAUCAACACAGCGUUGCAAUGUGGCCGUGGCUAGACUGCC [C8A G21U A26U U32C] is 0.09. On to GGCCGAGCUCAAUACAGCCUGGGAAAGUGGCUGUGGCUAGACUGCC [A4C C13U G19C C23G], for which the self-cleavage turned out to be 0.07. The figure for GGCAGAACUCAACACCGCGUGGCAAAGUGGCUGUGGCUAGAUUGCC [G7A A16C C42U] is 0.15; for GGCAGAGCUCAACGCACCGUGGCAAAAUGGCUGUGGCUAGACUGCC [A14G G17C G27A] it is 0.11; for GGCAGAGCUCAACACAGCGUGGCAAAGUGGCUGUUCCUAGACUGUA [G35U G36C C45U C46A] it is 0.03. The value for GGCAGAGCUCAACACAGCGUGGCUCAGUGGCUGUGUCUAGACUGCC [A24U A25C G36U] was 0.06; that for GGCAGAGCUCAACACAGCGAGGCUAAAUGGCUGUGGCUAAACUGCG [U20A A24U G27A G40A C46G] was 0.12. The value for GGCAGAGCACAACACAGCAUGGAAAAGUGGCUGUGGCUAGACUGCC [U9A G19A C23A] was 0.28; that for GGCCGACCUGGACACAGCGUGCCAAAGUGGCUGUGGCUAGACUGGC [A4C G7C C10G A11G G22C C45G] was 0.01. For the variant GGCAGAUCGCAAUACAGCGUGGCAAAGUGACUGUGGCUAGACUGCC [G7U U9G C13U G30A], the self-cleavage was determined as 0.06. The figure for GGCAGAGCUAAACACAGCGUGGCACAGUGGCUGUGGCAAGACUGCC [C10A A25C U38A] is 0.06; for GGCAGAGCUCAACACAGCGUCUCAAAGGGUCUGUGGCUAGACUUCC [G21C G22U U28G G30U G44U] it is 0.17; for UGCAGAGCUCAACUAAGCGUCGCAAAGUGGCUGUGUCUAGACUGCC [G1U A14U C15A G21C G36U] it is 0.01.

With GGCAGAGAUCAACACAGCGUGGCAAAGGGGCUGUGACUAGACUGCC [C8A U28G G36A], the self-cleavage was determined as 0.16. The figure for GGCAGAGCUCAAAACAGCGUGGAAAUGUGGCUGUGGAUAGACUGCC [C13A C23A A26U C37A] is 0.02; for UGCAGAGCUCAACACAGCGUGGCAAAGUGGAUGUGGCUAGACUUCC [G1U C31A G44U] it is 0.06. As for GGCAGAGCUCAACACAGCGUGGCAAAGCGGCUAUGGCCAGACUAAC [U28C G33A U38C G44A C45A], the self-cleavage was found to be 0.03. The value for GGCAUAGCUCAACACAGCGUGGCCAAGUGGCUGUGGCUAGGCUGCC [G5U A24C A41G] was 0.03; that for GGCAGAGCUCAAAACAGCUUGGCAAAGUGGCUGUGGCUCCAAUGCC [C13A G19U A39C G40C C42A] was 0.01. The figure for GGCAAAGCUCAAUUCAGCGUUGCAAAGUGGCUGUGGCUAGACUGCC [G5A C13U A14U G21U] is 0.11. GGCAAAGCUCAACACAGCGUGGCAAUGUGGCUGAGGCUCGGCUGCC [G5A A26U U34A A39C A41G]: the self-cleavage turned out to be 0.

Regarding GGCAGAGCUCUACACAGCGUGUCAAAGUGGCUGUGUCUAGACUGCC [A11U G22U G36U], the self-cleavage came out at 0. In the case of GCUAGAGCUCAACACAGCUUGGCAAAAUAGCUGUGGCUAGACUGCC [G2C C3U G19U G27A G29A], the self-cleavage was 0.05. The figure for GGCAGAGCACAACAUAGCGUGGCUCAGUUGCUUUGGCUAGUCUGCC [U9A C15U A24U A25C G29U G33U A41U] is 0.28.

Consider GGCAGAGUUUAACACAGGGUGGCAAAGUGGCUGUGGCUUGAGUCCC [C8U C10U C18G A39U C42G G44C], for which the self-cleavage came out at 0.01. On to GGCAGAGAUCAACACAGCGUGGCAAAGUGGCUGUGGCUAGCGUGCC [C8A A41C C42G], for which the self-cleavage came out at 0.39.

With GGUAUAGAUCAACACAGCGUGGCAAAGCGGCUGUAGCUAGACUGUC [C3U G5U C8A U28C G35A C45U], the self-cleavage was determined as 0.21.
